According to the supplement of paper PMC12217912:
The other results are listed elsewhere or left out. The full chains were built here from the parent and the listed change. Values near 0.05 are background.

B1: TEV protease; numbered along this chain (parent)
chain: MGESLFKGPRDYNPISSSICHLTNESDGHTTSLYGIGFGPFIITNKHLFRRNNGTLVVQSLHGVFKVKDTTTLQQHLVDGRDMIIIRMPKDFPPFPQKLKFREPQREERICLVTTNFQTKSMSSMVSDTSCTFPSGDGIFWKHWIQTKDGQCGSPLVSTRDGFIVGIHSASNFTNTNNYFTSVPKNFMELLTNQEAQQWVSGWRLNADSVLWGGHKVFMVKPEEPFQPVKEATQL

Variants of: B1
Assay: raw area under fraction-flipped curve 0-4 h after induction (AUC4h, not background-subtracted), DNA-recorder readout of cleavage of the substrate (dimensionless); higher = more cleavage of the substrate by the protease variant
Conditions: temperature: 34 °C; time window: 0-4 h after rhamnose induction
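Also: Bxb1 expression induced with 0.2% (w/v) L-rhamnose at OD600 near 0.5, cultures sampled hourly, flipped fraction per protease–substrate barcode pair counted by paired-end Illumina sequencing.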

Variant | area with substrate EDLYFQS | area with substrate EELYFQS | area with substrate EGLYFQS | area with substrate EHLYFQS | area with substrate EILYFQS | area with substrate ELLYFQS | area with substrate EMLYFQS | area with substrate EPLYFQS | area with substrate ERLYFQS | area with substrate ESLYFQS
L205Y | 0.106 | 0.125 | 0.0718 | 0.113 | 0.0696 | 0.0641 | 0.0929 | 0.0826 | 0.0683 | 0.0785
N172Q | 0.0604 |  |  |  |  | 0.0682 | 0.0439 |  |  | 
N172P |  | 0.0543 |  |  | 0.0534 |  |  | 0.0606 |  | 
N172W |  | 0.0593 |  |  |  |  |  |  |  | 
N172H |  | 0.0599 |  |  |  |  |  |  |  | 
G213C |  |  | 0.0627 | 0.0756 | 0.0657 | 0.0702 | 0.0753 |  | 0.0451 | 0.0609
T115R |  |  |  |  |  | 0.0753 |  |  |  | 0.135
T159P |  |  |  | 0.129 |  |  |  | 0.14 | 0.121 | 0.116
I145G | 0.111 | 0.138 | 0.0766 | 0.0955 | 0.0836 |  |  |  | 0.0859 | 
R87Q |  |  |  |  | 0.0631 |  |  |  |  | 0.182
R87T |  | 0.0778 | 0.0937 |  | 0.0637 |  |  | 0.0934 | 0.101 | 0.0847
R87D | 0.0859 | 0.0821 |  |  |  | 0.071 | 0.096 | 0.072 | 0.0756 | 
N177Q |  |  |  |  | 0.147 | 0.0768 |  |  |  | 0.127
E103M | 0.0989 |  |  | 0.103 | 0.0841 |  |  | 0.111 |  | 0.0977
E103S | 0.113 |  |  | 0.128 | 0.133 | 0.0782 | 0.152 |  |  | 0.13
E103I | 0.0887 |  | 0.0839 | 0.0091 | 0.121 |  |  | 0.132 |  | 0.1
Q194W |  |  |  | 0.143 | 0.0837 |  |  |  |  | 0.0853
Q194C | 0.133 |  |  |  | 0.0828 | 0.101 | 0.144 |  | 0.0904 | 0.0827
V67G | 0.0737 |  | 0.0487 | 0.0538 |  | 0.0608 |  | 0.0669 |  | 0.0714
S209R | 0.116 | 0.11 |  |  | 0.0868 | 0.0795 |  |  | 0.0685 | 0.0595
S209K | 0.112 |  | 0.0668 | 0.0917 | 0.0766 | 0.0843 | 0.11 |  |  | 0.0743
P228R |  |  | 0.114 |  | 0.0886 |  | 0.121 | 0.137 | 0.132 | 

Variant | area with substrate EDLYFQS | area with substrate EELYFQS | area with substrate EGLYFQS | area with substrate EHLYFQS | area with substrate EILYFQS | area with substrate ELLYFQS | area with substrate EMLYFQS | area with substrate EPLYFQS | area with substrate ERLYFQS | area with substrate ESLYFQS
W141F | 0.106 | 0.0922 | 0.0758 |  | 0.0771 | 0.0949 | 0.077 | 0.103 | 0.0062 | 
G138W | 0.0842 |  |  |  | 0.0844 |  | 0.0767 |  | 0.0994 | 0.105
D149P | 0.145 | 0.0977 | 0.0577 | 0.0922 |  |  | 0.0952 |  |  | 0.103
C131K | 0.0982 |  |  |  |  |  |  |  |  | 0.109
W212N | 0.0961 |  |  |  |  |  | 0.0742 |  |  | 0.0796
W212S | 0.0756 |  |  | 0.0815 |  |  | 0.0725 |  |  | 0.092
E108G | 0.0841 |  |  | 0.0759 | 0.0726 | 0.0585 |  |  | 0.084 | 0.0568
A170W | 0.0568 | 0.0634 |  |  | 0.0591 |  | 0.0566 | 0.0588 |  | 0.0455
H76T |  |  | 0.0493 |  | 0.0697 |  |  |  | 0.0531 | 
H76G | 0.127 |  | 0.109 |  | 0.103 |  | 0.103 |  | 0.0913 | 0.0774
N186T |  | 0.148 |  |  | 0.0911 | 0.0933 |  |  |  | 0.0884
H215I | 0.114 |  |  |  | 0.0808 |  |  |  |  | 
S169Y | 0.057 |  |  |  |  |  |  | 0.0538 | 0.0512 | 
K66H |  | 0.12 |  |  |  |  |  |  |  | 0.097
K66Y |  |  | 0.0983 |  |  | 0.098 | 0.101 | 0.151 | 0.109 | 
G2A | 0.135 |  |  |  | 0.114 | 0.123 |  |  |  | 
L190T |  |  |  |  | 0.113 |  |  |  |  | 0.138
T132N |  |  | 0.0556 | 0.0845 | 0.0673 |  | 0.107 | 0.125 |  | 0.0762
N45G | 0.133 | 0.097 | 0.071 |  | 0.0815 |  | 0.107 |  | 0.0547 | 
F95N | 0.102 |  |  |  | 0.0801 | 0.0928 |  |  | 0.0881 | 
K100D |  |  |  | 0.114 | 0.0821 |  | 0.103 | 0.111 | 0.0401 | 
F101H | 0.0275 |  | 0.0435 |  | 0.0321 |  |  |  | 0.0443 | 0.0549

Same assay, conditions: temperature: 34 °C; time window: 0-4 h after rhamnose induction

Variant | area with substrate EVLYFQS | area with substrate EWLYFQS | area with substrate ETLYFQS | area with substrate ECLYFQS | area with substrate EKLYFQS | area with substrate EQLYFQS | area with substrate EYLYFQS | area with substrate EFLYFQS
L205Y | 0.0845 | 0.0961 |  |  |  |  |  | 
N172Q | 0.0834 | 0.0541 | 0.0724 |  |  |  |  | 
N172P |  | 0.0543 |  |  |  |  |  | 
N172W |  |  |  | 0.0452 |  |  |  | 
N172H |  |  |  | 0.0388 |  |  |  | 
G213C | 0.0592 | 0.0594 | 0.0508 | 0.0748 | 0.066 |  |  | 
T115R |  | 0.127 | 0.152 | 0.0987 |  | 0.134 |  | 
T159P |  |  | 0.105 | 0.138 |  |  |  | 
I145G |  |  |  |  |  | 0.121 | 0.0926 | 
R87Q |  |  |  | 0.123 |  | 0.161 | 0.149 | 
R87T | 0.0916 |  |  |  | 0.0596 |  |  | 
R87D |  |  |  |  |  |  | 0.0881 | 
N177Q |  | 0.116 |  | 0.14 |  | 0.142 |  | 
E103M |  |  |  | 0.102 | 0.114 | 0.122 |  | 
E103S |  |  | 0.104 |  |  |  |  | 
E103I | 0.11 |  |  |  | 0.0912 | 0.107 |  | 
Q194W | 0.0853 |  |  | 0.102 | 0.102 |  |  | 
Q194C |  | 0.11 |  | 0.0895 |  | 0.103 |  | 
V67G | 0.0453 | 0.0544 | 0.0425 |  | 0.0634 |  | 0.0631 | 
S209R | 0.0746 | 0.109 |  |  | 0.0568 |  | 0.0644 | 
S209K | 0.0582 | 0.0706 |  |  |  | 0.0931 |  | 

Variant | area with substrate EVLYFQS | area with substrate EWLYFQS | area with substrate ETLYFQS | area with substrate ECLYFQS | area with substrate EKLYFQS | area with substrate EQLYFQS | area with substrate EYLYFQS | area with substrate EFLYFQS
P228R |  |  |  | 0.132 | 0.111 | 0.108 |  | 0.0964
W141F |  | 0.108 |  |  |  |  |  | 0.106
G138W |  | 0.0815 |  |  | 0.0872 |  |  | 
D149P | 0.0627 |  |  |  | 0.0941 | 0.09 |  | 
C131K |  |  | 0.141 | 0.118 |  |  |  | 
W212S |  | 0.0753 |  |  | 0.057 | 0.0924 |  | 
E108G |  |  |  |  | 0.0753 | 0.0727 |  | 
A170W | 0.0732 | 0.0631 |  |  |  |  | 0.0573 | 
H76T |  | 0.0468 |  | 0.0566 |  |  |  | 
H76G |  | 0.133 |  |  | 0.151 |  |  | 
N186T |  |  |  | 0.119 | 0.122 | 0.0861 |  | 
S169Y |  |  |  |  | 0.038 |  |  | 
K66H |  | 0.0883 |  |  | 0.123 | 0.125 |  | 
K66Y |  |  |  | 0.115 | 0.123 | 0.115 |  | 
G2A |  | 0.107 | 0.159 |  |  |  |  | 
L190T | 0.0872 |  | 0.12 | 0.138 | 0.054 | 0.09 |  | 0.132
T132N |  |  |  | 0.0785 |  | 0.0763 | 0.0628 | 
N45G | 0.0807 |  |  |  | 0.0738 |  |  | 
F95N | 0.0708 |  |  |  | 0.0974 | 0.0944 |  | 
K100D | 0.0635 | 0.0841 | 0.109 | 0.1 | 0.101 | 0.12 | 0.103 | 0.126
F101H | 0.0428 |  | 0.0513 |  |  |  |  | 
